{
  "source": "the supplement of paper PMC11880418",
  "note": "Structures can show the parent of a compound that is named as a salt. The list shows a part of the results. The data scatter; read single values as rough.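 Note: High-content imaging of ALDEFLUOR-stained cells with Hoechst-labelled nuclei in 384-well plates, triplicate wells, scored as Z-score against 0.1% DMSO vehicle, negative meaning fewer ALDHbr cells.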",
  "data": [
    {"test_system": "T84", "assay": "ALDHbr (CSC) cell proportion score relative to DMSO vehicle (ratio to DMSO); breast (SUM159) / gastric (MKN45) / pancreatic (PANC1) / colon cancer lines; ALDHbr cells have high ALDH activity and are rich in cancer stem cells (CSC); higher = more CSC (ALDHbr) cells remaining", "conditions": "10 µM; 72 h", "values": [
      {"smiles": "CC1COc2c(N3CCN(C)CC3)c(F)cc3c(=O)c(C(=O)O)cn1c23", "note": "(centres undefined) [Ofloxacin]", "ALDHbr": 1},
      {"smiles": "CNc1ncnc2c1ncn2[C@@H]1O[C@H](CO)[C@@H](O)[C@H]1O", "note": "[N6-methyladenosine]", "ALDHbr": 0.917},
      {"smiles": "CCN(CC)CCNC(=O)c1ccc(N)cc1", "note": "[Procainamide hydrochloride]", "ALDHbr": 0.962},
      {"smiles": "NS(=O)(=O)c1cc2c(cc1Cl)N=CNS2(=O)=O", "note": "[Chlorothiazide]", "ALDHbr": 0.941},
      {"smiles": "CNC(=C[N+](=O)[O-])NCCSCc1ccc(CN(C)C)o1", "note": "[Ranitidine hydrochloride]", "ALDHbr": 0.822},
      {"smiles": "OCCN1CCN(CC/C=C2/c3ccccc3Sc3ccc(Cl)cc32)CC1", "note": "[Zuclopenthixol dihydrochloride]", "ALDHbr": 0.112},
      {"smiles": "Cc1cc(NC(=O)C2=C(O)c3ccccc3S(=O)(=O)N2C)no1", "note": "[Isoxicam]", "ALDHbr": 0.964},
      {"smiles": "CC[C@H](C)C(=O)O[C@H]1C[C@H](O)C=C2C=C[C@H](C)[C@H](CC[C@@H](O)C[C@@H](O)CC(=O)O)[C@H]21", "note": "[Pravastatin]", "ALDHbr": 1.04},
      {"smiles": "O=C(CCCN1CCN(c2ccccn2)CC1)c1ccc(F)cc1", "note": "[Azaperone]", "ALDHbr": 1.13},
      {"smiles": "CCN(CC)CCCC(C)Nc1ccnc2cc(Cl)ccc12", "note": "(centres undefined) [Chloroquine diphosphate]", "ALDHbr": 0.836},
      {"smiles": "CC(=O)OCC(=O)[C@@]12OC3(CCCC3)O[C@@H]1C[C@H]1[C@@H]3CCC4=CC(=O)C=C[C@]4(C)[C@@]3(F)[C@@H](O)C[C@@]12C", "note": "[Amcinonide]", "ALDHbr": 0.89},
      {"smiles": "OCC(O)CN1CCN(c2ccccc2)CC1", "note": "(racemic) [Dropropizine (R,S)]", "ALDHbr": 0.859},
      {"smiles": "O=C(O)CNC(=O)C(CS)Cc1ccccc1", "note": "(centres undefined) [Thiorphan]", "ALDHbr": 1.02},
      {"smiles": "CSc1ccc2c(c1)N(CCC1CCCCN1C)c1ccccc1S2", "note": "(centres undefined) [Thioridazine hydrochloride]", "ALDHbr": 0.141},
      {"smiles": "OCCN1CCN(CCCN2c3ccccc3Sc3ccc(C(F)(F)F)cc32)CC1", "note": "[Fluphenazine dihydrochloride]", "ALDHbr": 0.056},
      {"smiles": "N[C@@H]1CCCCN(c2c(F)cc3c(=O)c(C(=O)O)cn(C4CC4)c3c2Cl)C1", "note": "[Besifloxacin hydrochloride]", "ALDHbr": 0.938},
      {"smiles": "C#C[C@]1(O)CC[C@H]2[C@@H]3CCc4cc(OC)ccc4[C@H]3CC[C@@]21C", "note": "[Ethynylestradiol 3-methyl ether]", "ALDHbr": 0.919},
      {"smiles": "CCOC(=O)[C@H](CCc1ccccc1)N[C@H]1CCc2ccccc2N(CC(=O)O)C1=O", "note": "[Benazepril hydrochloride]", "ALDHbr": 0.843},
      {"smiles": "CCN(CC)C(=O)C1(c2ccccc2)CC1CN", "note": "(centres undefined) [Milnacipran hydrochloride]", "ALDHbr": 0.973},
      {"smiles": "O=C1CN(/N=C/c2ccc(-c3ccc([N+](=O)[O-])cc3)o2)C(=O)N1", "note": "[Dantrolene sodium salt]", "ALDHbr": 0.824},
      {"smiles": "CO[C@@]1(NC(=O)CSCC#N)C(=O)N2C(C(=O)O)=C(CSc3nnnn3C)CS[C@@H]21", "note": "[Cefmetazole sodium salt]", "ALDHbr": 0.837},
      {"smiles": "O=C(N[C@H](CO)[C@H](O)c1ccc([N+](=O)[O-])cc1)C(Cl)Cl", "note": "[Chloramphenicol]", "ALDHbr": 0.738},
      {"smiles": "Clc1ccc(C(c2ccccc2Cl)C(Cl)Cl)cc1", "note": "(centres undefined) [Mitotane]", "ALDHbr": 1.01},
      {"smiles": "c1ccc(CN(CC2=NCCN2)c2ccccc2)cc1", "note": "[Antazoline hydrochloride]", "ALDHbr": 0.967},
      {"smiles": "O=C(O)c1cccnc1", "note": "[Niacin]", "ALDHbr": 1.26},
      {"smiles": "CC[C@H]1OC(=O)[C@H](C)[C@@H](O[C@H]2C[C@@](C)(OC)[C@@H](O)[C@H](C)O2)[C@H](C)[C@@H](O[C@@H]2O[C@H](C)C[C@H](N(C)C)[C@H]2O)[C@](C)(O)C[C@@H](C)CN(C)[C@H](C)[C@@H](O)[C@]1(C)O", "note": "[Azithromycin]", "ALDHbr": 1.08},
      {"smiles": "O=C1NCN(c2ccccc2)C12CCN(CCCC(c1ccc(F)cc1)c1ccc(F)cc1)CC2", "note": "[Fluspirilen]", "ALDHbr": 0.348},
      {"smiles": "CCOC(=O)NNc1nncc2ccccc12", "note": "[Todralazine hydrochloride]", "ALDHbr": 0.963},
      {"smiles": "Cc1c(NC(C)C)c(=O)n(-c2ccccc2)n1C", "note": "[Isopyrin hydrochloride]", "ALDHbr": 1.27},
      {"smiles": "CS(=O)(=O)c1ccc([C@@H](O)[C@@H](CO)NC(=O)C(Cl)Cl)cc1", "note": "[Thiamphenicol]", "ALDHbr": 0.799},
      {"smiles": "O=C(c1ccc(F)cc1)C1CCN(CCn2c(=O)[nH]c3ccccc3c2=O)CC1", "note": "[Ketanserin tartrate hydrate]", "ALDHbr": 0.999},
      {"smiles": "O=C(Nc1cccc2c(=O)cc(-c3nnn[nH]3)oc12)c1ccc(OCCCCc2ccccc2)cc1", "note": "[Pranlukast]", "ALDHbr": 1.07},
      {"smiles": "Cc1cnc(NC(=O)C2=C(O)c3ccccc3S(=O)(=O)N2C)s1", "note": "[Meloxicam]", "ALDHbr": 0.965},
      {"smiles": "O=C1[C@H](CC[C@H](O)c2ccc(F)cc2)[C@@H](c2ccc(O)cc2)N1c1ccc(F)cc1", "note": "[Ezetimibe]", "ALDHbr": 0.973},
      {"smiles": "C[C@H]1C[C@H]2[C@@H]3CCC4=CC(=O)C=C[C@]4(C)[C@@]3(F)[C@@H](O)C[C@]2(C)[C@@]1(O)C(=O)CO", "note": "[Betamethasone]", "ALDHbr": 0.973},
      {"smiles": "Cn1cnc2c1c(=O)[nH]c(=O)n2C", "note": "[Theobromine]", "ALDHbr": 0.963},
      {"smiles": "C[C@](N)(Cc1ccc(O)c(O)c1)C(=O)O", "note": "[Methyldopa (L,-)]", "ALDHbr": 0.882},
      {"smiles": "S=c1[nH]cnc2nc[nH]c12", "note": "[Mercaptopurine]", "ALDHbr": 0.549},
      {"smiles": "C[N+](C)(C)CCOC(N)=O", "note": "[Carbachol]", "ALDHbr": 0.921}
    ]}
  ]
}
